Assay results: patent US20180291093A1 (Eli Lilly, published 2018)

Legend:
human IL-12 (Peprotech) = molecular target: T1, human IL-12 (Peprotech) (human, UniProt P29459 23-219; P29460 23-328); test: SPR (BIAcore 2000), bispecific captured on protein A, 25 C
T1 construct: Bought from Peprotech
T1 sequence (looked up) 1: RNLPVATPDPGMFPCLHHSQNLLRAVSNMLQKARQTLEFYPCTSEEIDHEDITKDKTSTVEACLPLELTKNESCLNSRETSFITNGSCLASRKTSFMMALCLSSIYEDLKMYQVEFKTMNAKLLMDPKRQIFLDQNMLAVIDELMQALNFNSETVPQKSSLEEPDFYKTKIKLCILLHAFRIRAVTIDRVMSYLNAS
T1 sequence (looked up) 2: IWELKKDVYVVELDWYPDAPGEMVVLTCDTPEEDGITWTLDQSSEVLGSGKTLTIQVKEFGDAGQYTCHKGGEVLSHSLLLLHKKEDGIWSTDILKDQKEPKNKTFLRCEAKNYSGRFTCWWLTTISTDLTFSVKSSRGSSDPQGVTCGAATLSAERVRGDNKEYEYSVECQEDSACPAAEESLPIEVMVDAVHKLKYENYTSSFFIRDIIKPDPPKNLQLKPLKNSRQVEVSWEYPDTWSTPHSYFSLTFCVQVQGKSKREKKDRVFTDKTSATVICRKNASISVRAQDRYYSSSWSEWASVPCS
Method: A BIAcore 2000 instrument is used to determine if the bispecific antibody of the invention will bind human IL-12. Unless noted, reagents and materials are purchased from GE Healthcare Life Sciences (Upsala, Sweden); measurements performed at 25° C., and HBS-P buffer (150 mM sodium chloride, 0.005% (w/v) surfactant P-20, and 10 mM HEPES, pH 7.4) is used as the running- and sample-buffer. Protein A (Calbiochem) is immobilized on flow cells 1, 2, 3 and 4 of a CM5 sensor chip using an amine coupling kit. Bispecific Antibody 1 (diluted to 2 μg/mL) is captured first on flow cell 2 (with a 5 second injection at 80 μL/min, yielding 460 response units (Δ RU) of Bispecific Antibody 1 capture). Flow cell 1 is a protein-A-only control. Next, human IL-12 (Peprotech) is injected (667 nM) for 2 minutes and no additional binding signal (0 Δ RU) is observed. A commercial antibody specific for IL-12 (anti-human IL-12 antibody sold under the trade name STELARA®) binds human IL-12.

human CGRP [1] = molecular target: T2, human CGRP (human, UniProt P06881 83-119, not fully specified); test: SPR (Biacore 3000), bispecific captured on protein A, 37 C, 1:1 fit, n = 2
T2 construct: also called Calcitonin Gene Related Peptide; Human CGRP peptide (Bachem H-1470)
T2 peptide (looked up): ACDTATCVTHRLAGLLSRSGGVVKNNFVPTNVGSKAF
Method: (§1) A CM5 chip (Biacore P/N BR-1000-12) containing immobilized protein A (generated using standard NHS-EDC amine coupling) on all four flow cells (Fc) was used to employ a capture methodology. Bispecific antibody samples are prepared at approximately 2 μg/mL by dilution into running buffer. Human IL-23 is prepared at final concentrations of 25, 12.5, 6.25, 3.13, 0.78, 0.39, 0.20, 0.10 and 0 (blank) nM by dilution into running buffer. Human CGRP is prepared at final concentrations of 12.5, 6.25, 3.13, 0.78, 0.39, 0.20, 0.10 and 0 (blank) nM by dilution into running buffer.
(§2) Each analysis cycle consists of (1) capturing different bispecific antibody samples on separate flow cells (Fc2, Fc3, and Fc4) at a level to facilitate a 20-100RU maximum response signal from either the human IL-23 or CGRP; (2) injection of each human IL-23 or human CGRP concentration over all four Fc at 100 μL/min for 120 seconds followed by return to buffer flow for 600 seconds to monitor dissociation phase; (3) regeneration of chip surfaces with injection of 10 mM glycine, pH 1.5, for 30 seconds at 10 μL/min over all cells; and (5) equilibration of chip surfaces in HBS-EP+ running buffer. Data are processed using standard double-referencing and fit to a 1:1 binding model using BiaEvaluation software, version 4.1, to determine the association rate (kₒₙ, M⁻¹s⁻¹ units), dissociation rate (koff, s⁻¹ units), and Rₘₐₓ (RU units). The equilibrium dissociation constant (KD) is calculated from the relationship KD=koff/kₒₙ, and is in molar units.

human IL-23 [2] = molecular target: T3, human IL-23 (human, UniProt Q9NPF7 20-189; P29460 23-328); test: cell-based or functional assay
T3 sequence (looked up) 1: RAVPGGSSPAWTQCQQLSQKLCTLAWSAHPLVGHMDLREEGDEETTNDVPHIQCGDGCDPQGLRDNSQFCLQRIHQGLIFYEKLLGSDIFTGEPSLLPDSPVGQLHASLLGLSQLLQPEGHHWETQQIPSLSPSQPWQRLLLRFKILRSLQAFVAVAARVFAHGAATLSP
T3 sequence (looked up) 2: T1 sequence (looked up) 2

human IL-23 [3] = molecular target: T3, human IL-23; test: SPR (Biacore 3000), bispecific captured on protein A, 37 C, 1:1 fit, n = 4
Method: as §1, §2

human CGRP [4] = molecular target: T2, human CGRP; test: SPR (Biacore 3000), bispecific captured on protein A, 37 C, 1:1 fit
Method: as §1, §2

human IL-23 [5] = molecular target: T3, human IL-23; test: as above
Method: as §1, §2

B1: Bispecific Antibody 1 (bispecific antibody, human IgG4 S228P, kappa, F234A L235A)
heavy: QVQLVQSGAEVKKPGSSVKVSCKASGYTFGNYWMQWVRQAPGQGLEWMGAIYEGTGKTVYIQKFADRVTITADKSTSTAYMELSSLRSEDTAVYYCARLSDYVSGFGYWGQGTTVTVSSASTKGPSVFPLAPCSRSTSESTAALGCLVKDYFPEPVTVSWNSGALTSGVHTFPAVLQSSGLYSLSSVVTVPSSSLGTKTYTCNVDHKPSNTKVDKRV[human IgG4 Fc with S228P F234A L235A (EU numbers) omitted here]GGGSGGGGSGGGGSQVQLVQSGAEVKKPGSSVKVSCKASGYPFTRYVMHWVRQAPGQCLEWMGYINPYNDGVNYNEKFKGRVTITADESTSTAYMELSSLRSEDTAVYYCARNWDTGLWGQGTTVTVSSGGGGSGGGGSGGGGSGGGGSDIQMTQSPSSLSASVGDRVTITCKASDHIGKFLTWYQQKPGKAPKLLIYGATSKLTGVPSRFSGSGSGTDFTLTISSLQPEDFATYYCQQYWSTPFTFGCGTKVEIK
light: DIQMTQSPSSLSASVGDRVTITCRASKDISKYLNWYQQKPGKAPKLLIYYTSGYHSGVPSRFSGSGSGTDFTLTISSLQPEDFATYYCQQGDALPPTFGGGTKVEIKRTVAAPSVFIFPPSDEQLKSGTASVVCLLNNFYPREAKVQWKVDNALQSGNSQESVTEQDSKDSTYSLSSTLTLSKADYEKHKVYACEVTHQGLSSPVTKSFNRGEC
modifications: glycosylated at asparagine residue 296 of SEQ ID NO: 1
notes: IgG-scFv format: anti-CGRP IgG4-PAA with an anti-IL-23p19 scFv at the C-terminus of each heavy chain; expressed in CHO; also called first exemplified bispecific antibody
Question: Does B1 bind (human IL-12 (Peprotech))?
Answer: no binding (tested: 667 nM)

Question: What about the Kd (human CGRP [1]) of the same binder?
Answer: 0.026 nM

Question: And the koff (human CGRP [1])?
Answer: 0.00025 s⁻¹

Question: What about the kon (human CGRP [1]) of the same binder?
Answer: 3e+07 M⁻¹ s⁻¹

Question: What about the “IC50 of IL-23-induced Stat 3 activity (luciferase) in Kit225 cells” value (human IL-23 [2]) of the same binder?
Answer: 1.67 nM

Question: And the Kd (human IL-23 [3])?
Answer: 0.21 nM

Question: What about the koff (human IL-23 [3]) of the same binder?
Answer: 0.00017 s⁻¹

Question: And the kon (human IL-23 [3])?
Answer: 3.7e+06 M⁻¹ s⁻¹

B2: Bispecific Antibody 2 (bispecific antibody, human IgG4 S228P, kappa, F234A L235A)
heavy: QVQLVQSGAEVKKPGSSVKVSCKASGYTFGNYWMQWVRQAPGQGLEWMGAIYEGTGKTVYIQKFADRVTITADKSTSTAYMELSSLRSEDTAVYYCARLSDYVSGFGYWGQGTTVTVSSASTKGPSVFPLAPCSRSTSESTAALGCLVKDYFPEPVTVSWNSGALTSGVHTFPAVLQSSGLYSLSSVVTVPSSSLGTKTYTCNVDHKPSNTKVDKRV[human IgG4 Fc with S228P F234A L235A (EU numbers) omitted here]GGGSGGGGSGGGGSQVQLVQSGAEVKKPGSSVKVSCKASGYPFTRYVMHWVRQAPGQCLEWMGYINPYNDGVNYNEKFKGRVTITADESTSTAYMELSSLRSEDTAVYYCARNWDTGLWGQGTTVTVSSGGGGSGGGGSGGGGSGGGGSDIQMTQSPSSLSASVGDRVTITCKASDHIGKFLTWYQQKPGKAPKLLIYGATSKLTGVPSRFSGSGSGTDFTLTISSLQPEDFATYYCQTYWSTPFTFGCGTKVEIK
light: B1 light
modifications: glycosylated at asparagine residue 296 of SEQ ID NO: 2
notes: As Bispecific Antibody 1 but with Q684T in LCDR6 of the scFv; transiently expressed in CHO; also called second exemplified bispecific antibody
Question: Which results are given for B2?
Answer: Kd (human CGRP [4]): 0.077 nM; koff (human CGRP [4]): 0.00018 s⁻¹; kon (human CGRP [4]): 2.3e+06 M⁻¹ s⁻¹; Kd (human IL-23 [5]): 0.22 nM; koff (human IL-23 [5]): 0.00016 s⁻¹; kon (human IL-23 [5]): 730000 M⁻¹ s⁻¹
